Molecules are shown by their SMILES. Hit rate of the full screen: of about 150,000 compounds, about 540 (0.36%) showed an effect of 50% or more. This is one part of the list.

For this experiment, the system named is Plasmodium falciparum. The experiment in a line: Primary screen in NF54 nanoGlo assay, in single point, at 2uM, 72h; a lower Z score goes with more inhibition. Type of experiment: functional, Erythrocyte. The conditions noted are these: timepoint 72 hour.
In general, % Inhibition refers to the change of the read-out against control, counted positive when it falls. Turning to `COc1ccc(CN2C[C@H]3CC[C@@H](O)[C@H]3C2)c(OC)c1`, the “% Inhibition” value came to 7% and the Z score is on record as -0.69.

Take `N#Cc1ccccc1CN1CCN(CCO)[C@@H]2CS(=O)(=O)C[C@@H]21`: the “% Inhibition” value was -12% and the Z score was 1.91.

On to `O=C(NCCc1cccnc1)c1cn2c(n1)[C@@H](c1ccccc1)N(C(=O)Cc1cccnc1)CC2`, for which the “% Inhibition” value was -2% and the Z score stood at 0.33.

With `CCn1cc(CN2CCC[C@@](F)(C(=O)NCC3CC3)C2)c(C)n1`, the “% Inhibition” value is -20% and the Z score turned out to be 1.79.

For the compound `Cc1cccc(NC(=O)N(C)CCO)c1Br`, the “% Inhibition” value is -6% and the Z score worked out at 0.86.

For the compound `CCN(Cc1noc(C2CC2)n1)Cc1nc(-c2ccccc2)cs1`, the “% Inhibition” value is recorded as -13% and the Z score stood at 1.67.

`COCCNC(=O)c1coc(CN2C(=O)COc3ccc(C(=O)COc4ccccc4)cc32)n1`: the “% Inhibition” value is on record as -6% and the Z score worked out at 0.84.

Regarding `CCCNC(=O)c1cc2c(=O)[nH]c(C)cn2n1`, the “% Inhibition” value is recorded as -8% and the Z score is 1.04.

Take `O=C(CCS(=O)(=O)c1ccccc1)N1CCC(c2cccs2)CC1`: the “% Inhibition” value is -7% and the Z score was found to be 1.03.

Turning to `CC1CCC(NC(=O)c2ccc3ncsc3c2)CC1` (stereo unspecified), the “% Inhibition” value is 7% and the Z score is given as -1.06.

As to `c1ccc2c(c1)Cc1ccc(-c3csc(Nc4ccc5c(c4)OCCO5)n3)cc1-2`, the “% Inhibition” value is recorded as -8% and the Z score came out at 1.08.

For `CC(C)c1nnc(CCC(=O)N2CC[C@H]2c2cccc(F)c2)o1`, the “% Inhibition” value came to 5% and the Z score was -0.94.

With `CC1=C(C(=O)NCc2cnn(C)c2)OCCO1`, the “% Inhibition” value is given as -15% and the Z score is 1.85.

`O=C(NC(Cn1cccn1)c1ccccc1)C1CCCn2ncnc21` (stereo unspecified): the “% Inhibition” value was -8% and the Z score was determined as 0.98.

As to `O=S(=O)(Nc1cc(O)ccc1Cl)c1cnn2c1OCCC2`, the “% Inhibition” value is on record as -2% and the Z score was 0.18.

Turning to `Cc1ccc(CN(CC(=O)NC2CC2)Cc2ccccn2)o1`, the “% Inhibition” value turned out to be 2% and the Z score was -0.23.

On to `O=C(NCc1cncc(-c2cccs2)c1)c1ccccn1`, for which the “% Inhibition” value came to 5% and the Z score is given as -0.69.

In the case of `O=C(NCc1c(F)cccc1F)c1ccc(OCc2nc(C3CC3)cs2)cc1`, the “% Inhibition” value is reported as -21% and the Z score is recorded as 4.02.

In the case of `Cc1noc(-c2ccco2)c1C(=O)NCc1ccncc1`, the “% Inhibition” value is -3% and the Z score was 0.27.

On to `CC[C@H](CO)NC(=O)NCc1cc(Cl)sc1Cl`, for which the “% Inhibition” value was -1% and the Z score came out at 0.19.

On to `C[C@@H](c1ccc(F)cc1)N(C)S(=O)(=O)CCOCC1CC1`, for which the “% Inhibition” value stood at 2% and the Z score is given as -0.24.

For the compound `CCC(CC)c1cc(C(=O)N2CC3CN(Cc4ccccc4)CC3C2)on1` (stereo unspecified), the “% Inhibition” value is reported as -5% and the Z score was 0.55.

As for `CN1C[C@H](CNC(=O)c2cn(Cc3cccc(F)c3)nn2)[C@@H](c2ccccc2)C1`, the “% Inhibition” value is on record as -4% and the Z score is reported as 0.46.

`O=C(NCCN1CCC(CO)CC1)c1ccncc1Cl`: the “% Inhibition” value amounted to 2% and the Z score is given as -0.21.

`CCN(CC)c1ccc(C(=O)N2CCN(c3ccccc3C)C(=O)C2)cc1`: the “% Inhibition” value is recorded as 7% and the Z score is -0.96.

Take `COCCc1noc(CCCN2C(=O)c3ccccc3C2=O)n1`: the “% Inhibition” value is listed as -11% and the Z score was found to be 1.45.

Turning to `Cc1c(-c2cccc(C(=O)NCC[C@H]3CCOC3)c2)c(C(F)(F)F)nn1C`, the “% Inhibition” value was found to be 0% and the Z score came to 0.02.

Consider `C[C@H]1CCCN(CCCNC(=O)CCC(=O)N2Cc3ccccc3Oc3ncccc32)C1`, for which the “% Inhibition” value was 3% and the Z score is -0.36.

In the case of `Cc1nc2ccccc2n1-c1nccc(N(C)C)n1`, the “% Inhibition” value is listed as 5% and the Z score is -0.58.

`Cc1noc(C)c1C(=O)N1CC(N2C(=O)C3CC=CCC3C2=O)C1` (stereo unspecified): the “% Inhibition” value was found to be 17% and the Z score is given as -1.94.

With `COc1ccc(CNC(=O)c2c(-c3ccccc3)nnc3ccc(C)cc23)cc1`, the “% Inhibition” value is reported as -4% and the Z score is recorded as 0.49.

For the compound `c1ccc(C[C@H](c2ccccc2)c2nc3ccccc3o2)cc1`, the “% Inhibition” value was -40% and the Z score was determined as 4.68.

Regarding `O=C(Cc1ccccc1Cl)N1CC(Cc2nncn2CC2CC2)C1`, the “% Inhibition” value is recorded as -4% and the Z score is 0.71.

Take `CN1CCCC(N(C)C(=O)c2ccc(NC(=O)C3CCOC3)cc2)C1` (stereo unspecified): the “% Inhibition” value is listed as -5% and the Z score came out at 0.61.

In the case of `CCc1c(C)nc(-c2cccc(C)c2)nc1N1CCN(C(=O)c2ccc(Cl)c(Cl)c2)CC1`, the “% Inhibition” value is listed as -5% and the Z score is 0.52.

With `O=C1CCN(C(=O)c2ccccc2Nc2cccc(C(F)(F)F)c2)CCN1`, the “% Inhibition” value is -5% and the Z score turned out to be 0.92.

Consider `COC(=O)c1c(NC(C)=O)c2cc(NC3CCCCCC3)cnc2n1CCc1c[nH]c2ccccc12`, for which the “% Inhibition” value is recorded as 12% and the Z score was -2.21.

Turning to `CNC(=O)c1ccc(OCc2nc(C(C)C)ns2)cc1`, the “% Inhibition” value is given as 32% and the Z score is on record as -3.57.

Take `CCOc1ccc(NS(=O)(=O)c2ccc3c(c2)OCCO3)cc1S(=O)(=O)N1CCCCC1`: the “% Inhibition” value was -9% and the Z score stood at 1.26.

Consider `Cn1cnc(CCNC(=O)C2CCC(C)(C)CC2)n1`, for which the “% Inhibition” value amounted to 4% and the Z score is recorded as -0.62.

Take `O=C(c1ccc[n+]([O-])c1)N(CCc1ccccc1)C1CCCC1`: the “% Inhibition” value was -14% and the Z score was 1.52.

In the case of `COCCOC(=O)N1CCCC[C@H](NC(=O)CCC(F)(F)F)C1`, the “% Inhibition” value is -7% and the Z score was found to be 0.91.

For `O=C(NC1CC1C1CCCCC1)c1cn(CC(=O)N2CCCC2)nn1` (stereo unspecified), the “% Inhibition” value is given as -3% and the Z score is 0.26.

(Values after ChEMBL document CHEMBL4888484, “Replenishing the malaria drug discovery pipeline: Screening and hit evaluation of the MMV Hit Generation Library 1 (HGL1) against asexual blood stage Plasmodium falciparum ,using a nano luciferase reporter read-out” (2022).)
